Data as given in the supplement of paper PMC12217912.
The other results are listed elsewhere or left out. The full chains were built here from the parent and the listed change. Values near 0.05 are background.

B1: TEV protease; numbered along this chain (parent)
chain: MGESLFKGPRDYNPISSSICHLTNESDGHTTSLYGIGFGPFIITNKHLFRRNNGTLVVQSLHGVFKVKDTTTLQQHLVDGRDMIIIRMPKDFPPFPQKLKFREPQREERICLVTTNFQTKSMSSMVSDTSCTFPSGDGIFWKHWIQTKDGQCGSPLVSTRDGFIVGIHSASNFTNTNNYFTSVPKNFMELLTNQEAQQWVSGWRLNADSVLWGGHKVFMVKPEEPFQPVKEATQL

Variants of: B1
Assay: raw area under fraction-flipped curve 0-4 h after induction (AUC4h, not background-subtracted), DNA-recorder readout of cleavage of the substrate (dimensionless); higher = more cleavage of the substrate by the protease variant
Conditions: temperature: 34 °C; time window: 0-4 h after rhamnose induction
Procedure: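 In vivo DNA recorder in E. coli TOP10(DE3) ΔrhaA at 34 °C. Each TEVp single-site mutant (parent TEVp 0) is paired with a single-site variant of the 7-mer TEVs (canonical ENLYFQ|S). The substrate sits between flexible linkers in a Bxb1-sfGFP-TEVs-SsrA fusion, so cleavage stabilises Bxb1 and speeds flipping of a recombination array, read by NGS. The value is the raw area under the fraction-flipped curve over 0-4 h after rhamnose induction (AUC4h), with ≥20 reads per time point. It is not background-subtracted; inactive controls average about 0.047.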
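Further: Bxb1 expression induced with 0.2% (w/v) L-rhamnose at OD600 near 0.5, cultures sampled hourly, flipped fraction per protease–substrate barcode pair counted by paired-end Illumina sequencing.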

Variant	area with substrate ENLAFQS	area with substrate ENLDFQS	area with substrate ENLEFQS	area with substrate ENLFFQS	area with substrate ENLGFQS	area with substrate ENLHFQS	area with substrate ENLIFQS	area with substrate ENLKFQS	area with substrate ENLLFQS	area with substrate ENLNFQS	area with substrate ENLPFQS	area with substrate ENLQFQS	area with substrate ENLRFQS	area with substrate ENLSFQS	area with substrate ENLVFQS	area with substrate ENLWFQS	area with substrate ENLMFQS	area with substrate ENLTFQS	area with substrate ENLCFQS
K46L	0.055	0.0595	0.0596	0.0636	0.0566	0.0562	0.0851	0.0616	0.0559	0.0633	0.0594	0.0417	0.0588	0.0589	0.0638				
C20V	0.0372	0.0538	0.0653	0.0825	0.0835	0.0889	0.0997	0.0892	0.0773	0.0723	0.047	0.0646	0.0677	0.0678	0.0755	0.0621			
C20D	0.0445	0.0499	0.0408	0.0398		0.0694		0.0522	0.0448	0.0511		0.0422	0.0471	0.0392		0.044	0.0334	0.0648	
C20T	0.0681	0.064	0.0663	0.0761		0.0594	0.0772	0.0579	0.0833	0.0512	0.0524	0.0898		0.0565	0.0721	0.105	0.0771		0.0572
V58K	0.0462	0.0495		0.0557			0.053	0.0678						0.0348	0.0574				0.0541
I43P	0.0581	0.0462	0.0359	0.0315	0.0558	0.0342		0.04	0.0549	0.0523	0.0421		0.0436	0.0494	0.0435	0.0471			0.0391
I43C	0.0582	0.0491		0.0701	0.0878	0.0685	0.0777	0.0689	0.0748	0.0675	0.0543	0.0625	0.0595	0.0618	0.0678			0.0826	0.0668
I43T	0.0546	0.058		0.0708	0.0367	0.0576		0.0538		0.0585	0.0411		0.0613	0.0594	0.094		0.0609	0.0599	0.0474
N45A	0.0297	0.0632	0.0628	0.0824	0.0739		0.0547	0.0681	0.0643	0.0522	0.0612	0.0579		0.0561	0.0729		0.0566		
N45K	0.0771	0.0711		0.0777			0.0684		0.0493	0.0552	0.0289		0.0648	0.0663		0.0387	0.0666		0.0493
S18I	0.0586	0.0638		0.0763		0.0717		0.0694	0.0482	0.0677	0.0575	0.0678	0.0868						0.0624
I42N	0.0536	0.0376		0.0508		0.0304	0.0542	0.0505	0.0379	0.0576		0.0518	0.0541	0.0401		0.0525	0.0444		
T30K	0.0626	0.0698	0.0511	0.0744		0.0568	0.0846	0.0905		0.0571		0.0591	0.0689	0.069			0.0901		0.075
T44C	0.0651	0.0559	0.0818	0.0902	0.0532	0.0678	0.068	0.0854	0.076	0.0623	0.0616	0.062	0.072	0.067	0.0914	0.0658	0.0629		0.0607
T44Y	0.0481	0.0497	0.013		0.053	0.0384	0.0395	0.0448	0.0465	0.0463		0.0487	0.0512	0.0508		0.0548			0.0432
E25Q	0.0643	0.0562	0.0714	0.0871	0.0637			0.072	0.0795	0.0534		0.0685	0.0731	0.0576	0.104	0.0599			0.057
E25T	0.0822		0.0608	0.0963			0.0995	0.0818	0.0754	0.0671	0.0637			0.055					
N53T	0.0716	0.0643	0.0542	0.0668		0.0649		0.0748	0.0641	0.0646		0.0465		0.0655	0.0661				0.0686
N53R	0.0564	0.146	0.0693	0.07		0.0534	0.091	0.0738	0.0732	0.0663	0.0589	0.0644	0.0742	0.0624	0.0664	0.0696	0.0737		
R51L	0.0808	0.0631		0.0704	0.0515	0.0512	0.0812	0.0689		0.0644	0.0552	0.0726		0.0572	0.0807	0.0567	0.0755		0.0657
N24L	0.0618	0.0616	0.0689	0.0682		0.0749	0.0785	0.0822	0.0495	0.0723		0.0752	0.085	0.0798			0.0689		
G28A	0.0528	0.063	0.0513	0.0796	0.0768	0.0669	0.063	0.0705		0.0569	0.0574	0.0714	0.066	0.0561					
G28N	0.0588	0.0736	0.0762			0.0753			0.0528		0.0697		0.087			0.0664			
G28P	0.0638	0.0595	0.0607	0.0764		0.057		0.0673	0.0553	0.0471			0.0525	0.0587		0.0667			0.0719
G28R	0.0529	0.0609	0.0742	0.0734			0.0623	0.0835		0.0575	0.0649	0.0742	0.0659	0.0498		0.0617	0.0621		0.0495
G28W	0.0633	0.0763		0.0662	0.0474	0.0663	0.0761	0.0673	0.0694	0.0643	0.0545	0.0592	0.0606	0.0569		0.0609			0.0531
